In the BET-seq Pho4 binding data (Le et al. 2018):
This is one part of the list. The energies were worked out here from pooled read counts, against the library average; single values are noisy.

target: T1, Pho4 (S. cerevisiae) (UniProt P07270); test: relative binding free energy (BET-seq); higher = weaker binding; conditions: reference: library average
T1 sequence: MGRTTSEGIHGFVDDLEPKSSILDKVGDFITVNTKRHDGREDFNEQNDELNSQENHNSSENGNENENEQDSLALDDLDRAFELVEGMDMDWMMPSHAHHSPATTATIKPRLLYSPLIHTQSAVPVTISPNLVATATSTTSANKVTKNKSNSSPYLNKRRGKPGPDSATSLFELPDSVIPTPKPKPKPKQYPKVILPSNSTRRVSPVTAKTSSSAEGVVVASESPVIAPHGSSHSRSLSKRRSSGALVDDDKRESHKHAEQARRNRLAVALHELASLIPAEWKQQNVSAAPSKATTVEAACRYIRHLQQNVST

Sequence	relative binding free energy [kcal/mol]
GTATGCACGTGTGACG	-0.03
CTCGTCACGTGGAGTT	0.17
AATTTCACGTGAGGCG	0.36
TAGAGCACGTGGCGAT	-0.15
AGGATCACGTGAAGCT	0.44
GATTACACGTGAGGAT	0.33
AGGATCACGTGTGTTA	0.01
TTGCTCACGTGTTAAG	0.28
CATTACACGTGAGGTT	0.24
AAGGGCACGTGGCAGA	-0.09
CTAGGCACGTGGGGTG	-0.23
AGTATCACGTGTGCAG	0.17
GGTCGCACGTGGTGCG	-0.12
GTATTCACGTGTCATT	0.38
CCGGTCACGTGATGTG	0.21
CGGATCACGTGGGGTG	-0.1
ATGCTCACGTGAGGGG	0.34
GGACACACGTGGGGTG	-0.11
TGTTGCACGTGGTCAG	-0.15
ATGGCCACGTGGGCGG	-0.23
GGCCTCACGTGTTTGG	0.19
CTCGTCACGTGTGGTT	0.05
GGTTGCACGTGGGTAA	-0.08

Sequence	relative binding free energy [kcal/mol]
ATTTACACGTGAGGGA	0.25
AGTTTCACGTGTCTAG	0.14
AGATGCACGTGTGACG	0.07
TCTTCCACGTGGTGGT	-0.13
ACAGGCACGTGGTAGT	-0.18
TTCATCACGTGAGATG	0.28
GGCATCACGTGGGGTG	-0.09
ATGGCCACGTGTGATT	0.15
TAGGACACGTGGAGTA	-0.07
TCGATCACGTGGTTAT	0.18
GTTTGCACGTGCAGGG	0.1
TGGTACACGTGTTAAA	0.15
TATTTCACGTGCGGTC	0.38
CTGTACACGTGTGTGT	0.08
ATGGACACGTGGTTGC	0
CGTTTCACGTGTATGT	0.16
TGGAACACGTGTTGCG	0.11
TGGGGCACGTGAGAAT	0.28
GGGCGCACGTGGCGTC	-0.1
TGTTGCACGTGAATAA	0.13
ATTATCACGTGTCAGT	0.32
CTAATCACGTGGGCGG	0.04
TAAGTCACGTGGATGA	0.1

Sequence	relative binding free energy [kcal/mol]
AGAGACACGTGGGCTG	-0.12
CTATTCACGTGTATGT	0.19
TTGATCACGTGGTATC	0.11
AGTCACACGTGCGGTG	0.03
ATTCGCACGTGTGATT	-0.08
GTTAACACGTGTTGTC	0.23
CGTTTCACGTGGGCTT	0.24
ATACGCACGTGCGGGG	-0.18
TTGAGCACGTGAACGT	0.21
ATTTACACGTGTTCTT	0.12
AGTAGCACGTGAAGAG	0.27
GCTGGCACGTGATGGT	0.07
AGATCCACGTGGGTTG	-0.11
TGGGGCACGTGTCAGT	-0.11
GTATGCACGTGTGCGA	-0.04
ATGTACACGTGATATG	0.02
TTCCGCACGTGAGTGT	0.12
ACGTACACGTGGGTTA	-0.03
TAGGGCACGTGCTGGG	-0.13
ATAGTCACGTGGACGG	0.2
ATATACACGTGTGGAG	0
AGTTACACGTGTGTAG	0.11
GGGGCCACGTGATATG	0.03

Sequence	relative binding free energy [kcal/mol]
TGTCTCACGTGGGACG	0.13
GTTGCCACGTGGTGGA	-0.02
TTTAACACGTGTTTAG	0
GAAAGCACGTGGGTCT	0.03
GGGTGCACGTGTCTGT	0.07
GGTGGCACGTGGTGTG	-0.09
GTTCGCACGTGGGTAG	-0.22
GTAATCACGTGGAGGA	0.11
CTTGCCACGTGAGTGT	0.18
TTGAGCACGTGGGTTT	-0.18
CTTGTCACGTGACGGG	0.24
TTCATCACGTGTGGGT	0.16
GCTGTCACGTGCGGGC	0.15
TAGTTCACGTGTTTAT	0.27
ATTTACACGTGAAGTG	0.32
GTCGTCACGTGGTCTT	0.01
GAGGTCACGTGGGACA	0.16
CATGTCACGTGATTTA	0.25
GACGGCACGTGGGTAT	-0.19
CTGGACACGTGTTTTA	0.03
TAAGTCACGTGTTATA	0.16
TGTTACACGTGCTGGT	0.02
GTTTTCACGTGTAGTA	0.28

Sequence	relative binding free energy [kcal/mol]
TTTTGCACGTGAGTGT	0.17
GAGGTCACGTGGAGAT	0.21
TTGTTCACGTGGGGAT	0.22
ATGAACACGTGCGTGG	0.08
GTGTGCACGTGTGTTA	0.11
GGAAACACGTGTTGTA	0
CGGTACACGTGCGGTT	0.08
AGATTCACGTGGTTTA	0.19
CGTGGCACGTGTGATA	-0.03
TATGCCACGTGTAATG	0.16
AGGGACACGTGCTATG	0
AGTTGCACGTGTTATA	0
TTATACACGTGAATGT	0.25
ATGTGCACGTGGCGTA	-0.12
TGAATCACGTGTGATT	0.24
TGTGGCACGTGCATCG	-0.24
ATTGTCACGTGTAGTG	0.18
CGTGCCACGTGGGTTT	-0.21
TATTTCACGTGGGAAA	0.15
GCATGCACGTGGGTAG	-0.22
TGCTGCACGTGTATAT	-0.06
GTTGGCACGTGGAATA	0.05
GAGCGCACGTGGGTGG	-0.09
